According to PubChem BioAssay (NCATS):
Several values for one entry are separate records, joined by “and”; a condition that tells them apart may be missing. Equal entries are not always repeated. The shares of active, inactive and inconclusive entries below differ from those in the screen. A potency beside an inconclusive call is a rough fit, not a confirmed value. Some structures have more than one record in an assay (separate samples or runs), and their calls can disagree. Activity calls are given as the source filed them. Calls follow the shape of the dose curve; as a rule, active = well fitted curve in the direction sought with a large enough effect; inconclusive = small, poorly fitted or top-dose-only effect, or another doubt; inactive = no such curve, though single readings can be large; an effect the other way counts as inactive or inconclusive.

Assay: qHTS Screen of the MIPE 4.0 Collection Against Ewings Sarcoma (EW8) (AID 1259255); also: nearly all actives have a fitted effect of over 35% in size;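 as to viability: 100% = DMSO-treated cells and 0% = medium-only wells without cells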
Settings: EW8 Ewing sarcoma viability, CellTiter-Glo, 48 h; series mostly up to 45.8 µM; viability: at the top concentration
Summary of the method: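 Here, cells in 5% FBS RPMI were exposed for two days (48 h) to compound dilutions added four hours after plating. ATP-based CellTiter-Glo luminescence measured viability, normalized to vehicle and no-cell blanks.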
Potency is read from the fitted curve at half-maximal effect; tags tell the direction and shape of the fitted curve.

SMILES	viability	Potency
Cc1cc(C(=O)NOCCO)c(Nc2ccc(I)cc2F)n(C)c1=O	inactive: 111%	
C[C@]12CC[C@@H]3c4ccc(O)cc4C[C@@H](CCCCCCCCCS(=O)CCCC(F)(F)C(F)(F)F)[C@H]3[C@H]1CC[C@H]2O (stereo partly drawn)		inconclusive: 8.33 µM [inhibitor, partial curve, poor fit]
C[N+]1(C)[C@@H]2CC(OC(=O)[C@H](CO)c3ccccc3)C[C@H]1[C@H]1O[C@@H]12 (stereo partly drawn)	inactive: 113%	
COc1ccc(-c2oc3c(CC=C(C)C)c(OC4O[C@H](CO)[C@@H](O)[C@H](O)[C@@H]4O)cc(O)c3c(=O)c2OC2O[C@@H](C)[C@H](O)[C@@H](O)[C@@H]2O)cc1 (stereo partly drawn)		inconclusive: 26.4 µM [inhibitor, single point]
Cc1ccn(-c2ccc(-c3ncco3)cc2)c(=O)c1-c1ccc2nc(N)ncc2c1		inconclusive: 4.18 µM [inhibitor, full curve]
CCCCC[C@H](O)C=C[C@H]1[C@H](O)CC(=O)[C@H]1CC=CCCCC(=O)O		inconclusive: 26.4 µM [inhibitor, single point]
COC1CCC(N(C(=O)C2CCC(C)CC2)c2cc(C3=CCCCC3)sc2C(=O)O)CC1 (stereo not drawn)		inconclusive: 33.2 µM [inhibitor, single point]
NS(=O)(=O)c1ccc(Nc2nc(OCC3CCCCC3)c3[nH]cnc3n2)cc1		inconclusive: 18.7 µM [inhibitor, partial curve]
COc1ccc(-n2c(C)c([N+](=O)[O-])c3ccc(O)cc32)cc1		inconclusive: 29.6 µM [inhibitor, single point]
N#CC(=Cc1ccc(O)c(O)c1)C(=O)NCc1ccccc1		active: 18.7 µM
COc1cc(C(C)C)c(Oc2cnc(NC(CO)CO)nc2N)cc1I		active: 7.43 µM
CCOC(=O)C1=C(N)Oc2ccc(Br)cc2C1C(C#N)C(=O)OCC (stereo not drawn)		inconclusive: 37.2 µM [inhibitor, single point]
Cc1ncc([N+](=O)[O-])n1CCO	inactive: 117%	
CCN(C(=O)c1c(O)c2c(Cl)cccc2n(C)c1=O)c1ccccc1	inactive: 114%	
CCCCCCCCCCCC(CC1OC(=O)C1CCCCCC)OC(=O)C(CC(C)C)NC=O (stereo not drawn)	inactive: 120%	

Assay: Identifying Small Molecule Inhibitors of Pancreatic Cancer Stem Cells (A2780, Spheroid) (AID 1259357);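 also: spheroids pre-formed over 14 days in stem cell medium on hydrogel; compound exposure lasted 48 h before the ATP luminescence read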;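 as to viability (percent of control): 100% = DMSO treated cells and 0% = wells without cells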
Settings: Potency: A2780 spheroid viability; viability (percent of control): at 46.1 µM (top of the series)
Summary of the method: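 Pre-formed 14-day tumor spheroids or adherent cells dosed and incubated 48 h, 37C, 5% CO2. Viability assessed by CellTiter-Glo.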

SMILES	Potency	viability (percent of control)
CN(C)c1ccc(C2Nc3ccc4ccccc4c3C3=C2C(=O)CC(C)(C)C3)cc1Br (stereo not drawn)	inconclusive: 0.0017 µM [rising, full curve]	
CCC(C)n1ncn(-c2ccc(N3CCN(c4ccc(OC[C@H]5CO[C@](Cn6cncn6)(c6ccc(Cl)cc6Cl)O5)cc4)CC3)cc2)c1=O (stereo partly drawn)	active: 4.69 µM	
CN[C@@H](C)C(=O)N[C@H]1CCCC[C@H]2CC[C@@H](C(=O)N[C@@H](c3ccccc3)c3cn(CCCCc4ccc(CCCCn5cc([C@@H](NC(=O)[C@@H]6CC[C@@H]7CCCC[C@H](NC(=O)[C@H](C)NC)C(=O)N76)c6ccccc6)nn5)cc4)nn3)N2C1=O		inactive: 42.6%
CNC(=O)c1cc(Oc2ccc(NC(=O)Nc3ccc(Cl)c(C(F)(F)F)c3)c(F)c2)ccn1	inconclusive: 20.9 µM [cytotoxic, partial curve, poor fit]	

Assay: Identifying Small Molecule Inhibitors of Pancreatic Cancer Stem Cells (Panc1, Adherent) (AID 1259362);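 as to viability, % of control: compound exposure lasted 48 h before the viability read; plate controls were DMSO-treated cells for no effect and cell-free media wells for full effect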
Settings: Potency: viability; viability, % of control: at 46.1 µM (top of the series)
Summary of the method: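 Spheroids grown 14 days in stem cell media on hydrogel-coated nonadherent plates; 2D lines seeded directly. Compounds added after 4 h attachment, 48 h at 37C, 5% CO2; CellTiter-Glo luminescence normalized to DMSO (no inhibition) and no-cell wells (full inhibition).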

SMILES	viability, % of control	Potency
CN(C)c1ccc(C2Nc3ccc4ccccc4c3C3=C2C(=O)CC(C)(C)C3)cc1Br (stereo not drawn)	inconclusive: 124%	
CCC(C)n1ncn(-c2ccc(N3CCN(c4ccc(OC[C@H]5CO[C@](Cn6cncn6)(c6ccc(Cl)cc6Cl)O5)cc4)CC3)cc2)c1=O (stereo partly drawn)	inactive: 107%	
CN[C@@H](C)C(=O)N[C@H]1CCCC[C@H]2CC[C@@H](C(=O)N[C@@H](c3ccccc3)c3cn(CCCCc4ccc(CCCCn5cc([C@@H](NC(=O)[C@@H]6CC[C@@H]7CCCC[C@H](NC(=O)[C@H](C)NC)C(=O)N76)c6ccccc6)nn5)cc4)nn3)N2C1=O		inconclusive: 0.0047 µM [cytotoxic, full curve, poor fit]
CNC(=O)c1cc(Oc2ccc(NC(=O)Nc3ccc(Cl)c(C(F)(F)F)c3)c(F)c2)ccn1		active: 20.9 µM

Assay: P-glycoprotein substrates identified in KB-3-1 adenocarcinoma cell line, qHTS therapeutic library screen (AID 1346986); also: nearly all actives have a fitted effect of over 60% in size;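 also: potency is for cytotoxicity meaning loss of cell viability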
Settings: KB-3-1 parental cells viability, CellTiter-Glo, 72 h; series mostly up to 44.5 µM
Summary of the method: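 Resistance attributable to P-gp was assessed by comparing AC50 in KB-8-5-11 with parental KB-3-1 and by tariquidar reversal. Cells were exposed 72 h and viability read by CellTiter-Glo.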

SMILES	outcome	Potency
COc1cccc([C@@H](C)NCCCc2ccccc2Cl)c1	inactive	
CCC(C)n1ncn(-c2ccc(N3CCN(c4ccc(OC[C@H]5CO[C@](Cn6cncn6)(c6ccc(Cl)cc6Cl)O5)cc4)CC3)cc2)c1=O (stereo partly drawn)		inconclusive: 8.93 µM [inhibitor, partial curve]
O=c1[nH]c(=O)n(C2CCCO2)cc1F (stereo not drawn)	inactive [at 93.4 µM]	
CNC(=O)c1cc(Oc2ccc(NC(=O)Nc3ccc(Cl)c(C(F)(F)F)c3)c(F)c2)ccn1		active: 18.4 µM

Assay: P-glycoprotein substrates identified in KB-8-5-11 adenocarcinoma cell line, qHTS therapeutic library screen (AID 1346987); also: nearly all actives have a fitted effect of over 65% in size; as to activity change, negative = cytotoxicity: % is scaled to controls: 0 for no effect and ±100 for the full control effect
Settings: KB-8-5-11 (P-gp overexpressing) viability, CellTiter-Glo, 72 h; series mostly up to 44.5 µM; activity change, negative = cytotoxicity: at the top concentration
Summary of the method: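 KB-8-5-11, a colchicine-selected P-gp-overexpressing KB-3-1 subline, was grown without colchicine for the assay. Cells were seeded at 500 cells/well, dosed in concentration-response and incubated 72 h at 37 degree C, 5% CO2. Viability was read by CellTiter-Glo luminescence.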

SMILES	Potency	outcome	activity change, negative = cytotoxicity
CN(C)c1ccc(C2Nc3ccc4ccccc4c3C3=C2C(=O)CC(C)(C)C3)cc1Br (stereo not drawn)	inconclusive: 20.6 µM [inhibitor, single point]		
CN1CCN(Cc2ccc(NC(=O)Nc3ccc(Oc4cc(NC(=O)C5CC5)ncn4)cc3)cc2C(F)(F)F)CC1	inconclusive: 4.18 µM [inhibitor, full curve, poor fit] and active: 5.8 µM		
CC(=O)OCC(=O)[C@@]12N=C(C)O[C@H]1C[C@H]1[C@@H]3CCC4=CC(=O)C=C[C@]4(C)[C@@H]3[C@@H](O)C[C@@]12C		inactive	
CNCCCC12CCC(c3ccccc31)c1ccccc12	inconclusive: 16.4 µM [inhibitor, partial curve] and inconclusive: 29.1 µM [inhibitor, single point]		
CC(=O)OC1C(C)OC(Oc2c(-c3ccc(O)cc3)oc3cc(O)cc(O)c3c2=O)C(O)C1OC(C)=O (stereo not drawn)		inactive	
c1ccc2c(Oc3nc(Nc4ccc(N5CCOCC5)cc4)c4ncn(C5CCCCC5)c4n3)cccc2c1	inconclusive: 29.1 µM [inhibitor, single point]		
Cc1ccc(-n2[nH]c(C)c(N=Nc3cccc(-c4cccc(C(=O)O)c4)c3O)c2=O)cc1C			inactive: -16.1%
CCC(C)n1ncn(-c2ccc(N3CCN(c4ccc(OC[C@H]5CO[C@](Cn6cncn6)(c6ccc(Cl)cc6Cl)O5)cc4)CC3)cc2)c1=O (stereo partly drawn)	inconclusive: 1.64 µM [inhibitor, full curve] and inconclusive: 6.32 µM [inhibitor, partial curve]		
CCCCC(C=O)NC(=O)C(CC(C)C)NC(=O)OCc1ccccc1 (stereo not drawn)	inconclusive: 16.6 µM [inhibitor, partial curve, poor fit]		
CCn1cc(C(=O)O)c(=O)c2cc(F)c(N3CCNCC3)nc21	inactive		
O=C(N[C@H](CO)[C@H](O)c1ccc([N+](=O)[O-])cc1)C(Cl)Cl	inconclusive: 11.6 µM [inhibitor, partial curve] and inconclusive: 12.6 µM [inhibitor, partial curve]		
COc1cc(C(=O)NC2CCN(C)CC2)ccc1Nc1ncc2c(n1)N(C1CCCC1)CCC(=O)N2C(C)C	inconclusive: 26.4 µM [inhibitor, single point]		
CN1CCN(c2cccc(Nc3nc4c(-c5ccc(S(C)(=O)=O)cc5)cccn4n3)c2)CC1	active: 20.6 µM		
CNC(=O)c1cc(Oc2ccc(NC(=O)Nc3ccc(Cl)c(C(F)(F)F)c3)c(F)c2)ccn1	active: 16.4 µM		
C[C@@]1(C(=O)Nc2ccc(F)nc2)CCCN1c1nc(Nc2cc(C3CC3)[nH]n2)c2cccn2n1	inconclusive: 4.18 µM [inhibitor, full curve] and inconclusive: 2.31 µM [inhibitor, full curve]		
Cc1nccn1CC1CCc2c(c3ccccc3n2C)C1=O (stereo not drawn)	inactive		
